# Source: the BET-seq Pho4 binding data (Le et al. 2018)
# This is one part of the list. The energies were worked out here from pooled read counts, against the library average; single values are noisy.
# Target: T1, Pho4 (S. cerevisiae) (UniProt P07270)
# T1 sequence: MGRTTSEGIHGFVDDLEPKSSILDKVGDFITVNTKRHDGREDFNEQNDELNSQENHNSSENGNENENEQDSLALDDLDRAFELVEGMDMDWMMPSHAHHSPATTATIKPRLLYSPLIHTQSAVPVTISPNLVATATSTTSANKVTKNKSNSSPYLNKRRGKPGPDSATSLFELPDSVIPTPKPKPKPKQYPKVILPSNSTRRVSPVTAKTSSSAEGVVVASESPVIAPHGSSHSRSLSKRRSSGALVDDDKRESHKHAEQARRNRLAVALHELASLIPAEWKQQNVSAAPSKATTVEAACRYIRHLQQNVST
# Experiment: relative binding free energy (BET-seq); higher = weaker binding
# Settings: reference: library average
row,Sequence,relative binding free energy
1,TAAACCACGTGGGGTG,-0.24 kcal/mol
2,AGTAGCACGTGTATGG,-0.2 kcal/mol
3,TGATACACGTGATTTT,0.17 kcal/mol
4,GGGTGCACGTGCTTTG,-0.07 kcal/mol
5,TGGGCCACGTGCTGAG,-0.1 kcal/mol
6,GTGAGCACGTGAGGTC,0.16 kcal/mol
7,GCCTACACGTGGGGGT,-0.05 kcal/mol
8,TTTGTCACGTGTTGAT,0.06 kcal/mol
9,AGCAGCACGTGGCTGG,-0.08 kcal/mol
10,TGGGCCACGTGTTAGT,-0.08 kcal/mol
11,TATGTCACGTGGAGAA,-0.05 kcal/mol
12,CTTAGCACGTGCTGGG,-0.24 kcal/mol
13,AGACGCACGTGGGTGT,-0.31 kcal/mol
14,TATTGCACGTGGAAGA,-0.06 kcal/mol
15,GTTATCACGTGATTTG,0.21 kcal/mol
16,TTAGACACGTGGGATT,0.05 kcal/mol
17,TTTCGCACGTGTTTCT,0.12 kcal/mol
18,TGGTTCACGTGATGAA,0.4 kcal/mol
19,CTGGGCACGTGGGCCG,-0.29 kcal/mol
20,AGGTGCACGTGTCAGG,-0.08 kcal/mol
21,TAGTTCACGTGGATGG,0.29 kcal/mol
22,GTTAGCACGTGCGTGA,-0.06 kcal/mol
23,TACGGCACGTGGATGT,0.17 kcal/mol
24,GGTTGCACGTGAAGAA,0.33 kcal/mol
25,AATGGCACGTGGCGGC,-0.27 kcal/mol
26,TTAACCACGTGTATGG,0.04 kcal/mol

row,Sequence,relative binding free energy
1,TGTTTCACGTGGGCGT,0.17 kcal/mol
2,GTTGTCACGTGGTTCT,0.22 kcal/mol
3,GTGTGCACGTGGGCTA,-0.09 kcal/mol
4,AGTGGCACGTGAGGGA,0.11 kcal/mol
5,GGTGGCACGTGTAATA,0.07 kcal/mol
6,ATGCGCACGTGTGGTG,-0.05 kcal/mol
7,ATACTCACGTGGGGTA,0.05 kcal/mol
8,AGAGTCACGTGTGGTC,0.14 kcal/mol
9,TGGTACACGTGTGATG,0.13 kcal/mol
10,AAGGTCACGTGAGGGC,0.15 kcal/mol
11,GTGTACACGTGTTCGC,0.15 kcal/mol
12,GTTAGCACGTGGGTAC,-0.11 kcal/mol
13,CTGCTCACGTGGGGGT,-0.03 kcal/mol
14,GAAGTCACGTGTCGTT,0.23 kcal/mol
15,TCAGTCACGTGGAGGT,0.15 kcal/mol
16,GGGAGCACGTGGTTAT,-0.11 kcal/mol
17,CTTGTCACGTGTGTGG,0.08 kcal/mol
18,GGGATCACGTGAGTGC,0.22 kcal/mol
19,AGGGTCACGTGACTTT,0.07 kcal/mol
20,TATTGCACGTGGGACG,-0.1 kcal/mol
21,ATCTGCACGTGGCAGG,-0.06 kcal/mol
22,TTACACACGTGTTGTG,-0.15 kcal/mol
23,TTATACACGTGGTTGG,-0.01 kcal/mol
24,GGTTGCACGTGTGCCT,0.1 kcal/mol
25,TCTGGCACGTGGTAAG,-0.11 kcal/mol
26,CAGTTCACGTGGTGTG,0.17 kcal/mol

row,Sequence,relative binding free energy
1,GGTGTCACGTGGGACG,0.05 kcal/mol
2,GTTTTCACGTGCATTT,0.29 kcal/mol
3,GAAGACACGTGGAGTG,0.07 kcal/mol
4,TTGTACACGTGATTGC,0.18 kcal/mol
5,TATGGCACGTGATATA,-0.22 kcal/mol
6,TGATGCACGTGTAGTT,0.04 kcal/mol
7,TGGGACACGTGAGTCT,0.15 kcal/mol
8,CGGGTCACGTGGGCAT,-0.15 kcal/mol
9,GCGGTCACGTGGTTGC,0.07 kcal/mol
10,TAGGCCACGTGGAAAG,0.15 kcal/mol
11,ATGCTCACGTGGCGTG,-0.01 kcal/mol
12,GTTTTCACGTGTCAAT,0.37 kcal/mol
13,GATGTCACGTGAAAGT,0.36 kcal/mol
14,GTCGTCACGTGGTGAG,0.11 kcal/mol
15,GAAGGCACGTGAATTT,0.35 kcal/mol
16,GGTTTCACGTGATTTG,0.47 kcal/mol
17,TGAGCCACGTGAGGTG,0.05 kcal/mol
18,GTGCGCACGTGTGGCA,-0.15 kcal/mol
19,GAGGACACGTGGGGCA,-0.01 kcal/mol
20,TCGTTCACGTGGGGAA,0.21 kcal/mol
21,ATTTTCACGTGATCGG,0.32 kcal/mol
22,ATAATCACGTGTGTAA,0.15 kcal/mol
23,TCATTCACGTGAGGAT,0.43 kcal/mol
24,CGTGTCACGTGTTCGT,-0.03 kcal/mol
25,GGCGACACGTGATAGT,0.19 kcal/mol
26,GTGGACACGTGGCCGG,0 kcal/mol

row,Sequence,relative binding free energy
1,GATTGCACGTGAGTGT,0.23 kcal/mol
2,ATGTTCACGTGTCGGC,0.27 kcal/mol
3,GCGTGCACGTGCTGGT,-0.17 kcal/mol
4,AAAGGCACGTGTGTGT,-0.15 kcal/mol
5,TTTCGCACGTGGGTTC,-0.13 kcal/mol
6,TGGTACACGTGTATTA,0.08 kcal/mol
7,GGGCACACGTGGAGTG,0.1 kcal/mol
8,TGTATCACGTGTGCTC,0.17 kcal/mol
9,CATAGCACGTGGGGTT,-0.19 kcal/mol
10,GTGCCCACGTGGTGTG,-0.22 kcal/mol
11,CGGAGCACGTGGGGGC,-0.25 kcal/mol
12,GTGATCACGTGGGATG,0.05 kcal/mol
13,CGCGGCACGTGTGTGT,-0.02 kcal/mol
14,TGGATCACGTGAATGA,0.48 kcal/mol
15,ATTGACACGTGTAGTA,-0.02 kcal/mol
16,ACGCGCACGTGTGGGG,-0.09 kcal/mol
17,TGTGCCACGTGTAGAA,-0.05 kcal/mol
18,TGTTCCACGTGTTCTT,0.02 kcal/mol
19,ATTGGCACGTGTACTA,-0.05 kcal/mol
20,GTGTTCACGTGTCCGT,0.22 kcal/mol
21,TTTGGCACGTGTTGGA,-0.06 kcal/mol
22,CTTATCACGTGGTGGA,0.05 kcal/mol
23,TTAAACACGTGTAGTA,0.01 kcal/mol
24,GAGGTCACGTGTTGGC,0.21 kcal/mol
25,AGAGGCACGTGTGTGG,-0.15 kcal/mol
26,ATCGGCACGTGTCGTT,-0.01 kcal/mol

row,Sequence,relative binding free energy
1,GGTGTCACGTGTCTTT,0.16 kcal/mol
2,TACGACACGTGTGTTT,0.07 kcal/mol
3,TGAAGCACGTGTGTCG,-0.08 kcal/mol
4,GAGTACACGTGTTTAT,0.18 kcal/mol
5,GTTACCACGTGGGTGT,-0.32 kcal/mol
6,TACTTCACGTGAATGT,0.4 kcal/mol
7,GCATTCACGTGATTGA,0.43 kcal/mol
8,GTTGGCACGTGATGAC,0.17 kcal/mol
9,GGGTTCACGTGGAATC,0.49 kcal/mol
10,GAGTTCACGTGAGAAT,0.51 kcal/mol
11,GTTTGCACGTGATTCG,0.06 kcal/mol
12,GACGGCACGTGGGTAG,-0.2 kcal/mol
13,TCGTACACGTGGCGGG,0.1 kcal/mol
14,GTGGGCACGTGGATTA,-0.04 kcal/mol
15,GTGTACACGTGAGGAT,0.29 kcal/mol
16,GAGATCACGTGGTTGG,0.3 kcal/mol
17,TATTGCACGTGTAGTC,0.07 kcal/mol
18,TTCTGCACGTGTAGCG,0.03 kcal/mol
19,AACGGCACGTGAGGCG,0.18 kcal/mol
20,AATTTCACGTGTTTGG,0.18 kcal/mol
21,GTTTTCACGTGGGCAT,0.2 kcal/mol
22,TTGGGCACGTGGGGGG,-0.15 kcal/mol
23,ATTTCCACGTGTTAGA,0.19 kcal/mol
24,TGTAACACGTGCGTAT,0.04 kcal/mol
25,TAAGTCACGTGAAATT,0.2 kcal/mol
26,AAGCTCACGTGGTGTA,0.19 kcal/mol

row,Sequence,relative binding free energy
1,GGTCGCACGTGAGGTA,0.19 kcal/mol
2,GTGTGCACGTGGAATT,0.11 kcal/mol
3,TTGGGCACGTGTAGAT,0.22 kcal/mol
4,GGGGCCACGTGTTTGC,0 kcal/mol
5,GACGTCACGTGTGGAG,0.04 kcal/mol
6,GTGAGCACGTGATTCT,0.13 kcal/mol
7,TGAGCCACGTGGTGTA,-0.04 kcal/mol
8,TGTTGCACGTGAGGTT,0.14 kcal/mol
9,TCTTTCACGTGAGTGC,0.43 kcal/mol
10,AGTTTCACGTGTAGAG,0.24 kcal/mol
11,GGCATCACGTGAGAGG,0.32 kcal/mol
12,TGAATCACGTGATATT,0.28 kcal/mol
13,GTCGCCACGTGGGGTA,-0.04 kcal/mol
14,TAGATCACGTGTTTGC,0.1 kcal/mol
15,AGTTTCACGTGTCGGA,0.18 kcal/mol
16,GGGGTCACGTGGTATC,0.1 kcal/mol
17,TGATTCACGTGGTAGA,0.26 kcal/mol
18,GGGTACACGTGGGTAC,-0.14 kcal/mol
19,TTACGCACGTGGGTTT,-0.19 kcal/mol
20,GGGAACACGTGTTTTA,0.07 kcal/mol
21,TGCTACACGTGATGGT,0.33 kcal/mol
22,CCGGGCACGTGGGGTA,-0.27 kcal/mol
23,TTATACACGTGGCGGT,0 kcal/mol
24,ATGATCACGTGGCGCG,0.14 kcal/mol
25,GGAGGCACGTGAAGGC,0.05 kcal/mol
26,GGAAACACGTGAGTGA,0.36 kcal/mol

row,Sequence,relative binding free energy
1,GTTGGCACGTGCAGAG,-0.1 kcal/mol
2,TGATTCACGTGAGTGC,0.29 kcal/mol
3,ATTGACACGTGTTTAT,-0.04 kcal/mol
4,TTTTTCACGTGAGGTC,0.31 kcal/mol
5,TGCGGCACGTGGCATG,-0.26 kcal/mol
6,GTGCGCACGTGAGGTG,0.19 kcal/mol
7,AGTTTCACGTGAGAAA,0.48 kcal/mol
8,TTTTGCACGTGCAAAG,-0.08 kcal/mol
9,TCTTTCACGTGTAAAA,0.55 kcal/mol
10,CTGGCCACGTGTTGGA,0.05 kcal/mol
11,TTTCGCACGTGTTGGA,0.09 kcal/mol
12,AGTAACACGTGCGGGA,0.16 kcal/mol
13,TACGGCACGTGTTGTA,-0.07 kcal/mol
14,TGTATCACGTGTAGTA,0.1 kcal/mol
15,TGAGACACGTGGGTAA,-0.1 kcal/mol
16,AAAGGCACGTGTCAGG,-0.1 kcal/mol
17,TCTATCACGTGTTGGT,0.25 kcal/mol
18,TTATTCACGTGTATTA,0.19 kcal/mol
19,TGGGGCACGTGGGTAC,-0.22 kcal/mol
20,GATGGCACGTGAGGCG,0.08 kcal/mol
21,GGGCTCACGTGTTGCT,0.39 kcal/mol
22,GGGGCCACGTGGGGAA,-0.23 kcal/mol
23,CGAGGCACGTGTGTTA,-0.11 kcal/mol
24,AAGTGCACGTGAAGCG,0.3 kcal/mol
25,ATAGTCACGTGGGCGG,-0.14 kcal/mol
26,ATGTGCACGTGACGTA,-0.02 kcal/mol

row,Sequence,relative binding free energy
1,ATATACACGTGTGGTG,0.04 kcal/mol
2,AGTAACACGTGGTTGA,-0.06 kcal/mol
3,GATATCACGTGGGGGA,0.04 kcal/mol
4,TATTGCACGTGAGTAG,0.2 kcal/mol
5,TATGACACGTGAATAG,0.27 kcal/mol
6,GGGTGCACGTGCGCTA,-0.09 kcal/mol
7,TGTTGCACGTGGTTTT,0.04 kcal/mol
8,ATGTGCACGTGGGGCC,-0.29 kcal/mol
9,TGCGTCACGTGGTAGA,-0.05 kcal/mol
10,TTTGTCACGTGAGAAG,0.19 kcal/mol
11,TTTTTCACGTGAGAGT,0.53 kcal/mol
12,ATAATCACGTGGGCTG,-0.05 kcal/mol
13,GTTAGCACGTGTTGTA,-0.07 kcal/mol
14,AGCAACACGTGGTTGG,-0.04 kcal/mol
15,CGAGTCACGTGCTGGG,0.11 kcal/mol
16,GGGTGCACGTGGAGAG,0.03 kcal/mol
17,AGAAACACGTGTGTTG,-0.13 kcal/mol
18,TTTGACACGTGTGCGG,0 kcal/mol
19,CGGTTCACGTGCTGTG,0 kcal/mol
20,GGGTACACGTGTTGTA,0.08 kcal/mol
21,GATGGCACGTGTGCGA,-0.1 kcal/mol
22,GGGTTCACGTGATTTC,0.48 kcal/mol
23,TTGGACACGTGCGTTT,0.11 kcal/mol
24,TTTTACACGTGATCAT,0.03 kcal/mol
25,AGATGCACGTGTAGAG,0.04 kcal/mol
26,GGAGGCACGTGCGCGT,-0.19 kcal/mol

row,Sequence,relative binding free energy
1,AGCGTCACGTGCGGGC,0.07 kcal/mol
2,AATTTCACGTGTATAT,0.13 kcal/mol
3,GTTGACACGTGAGATT,0.19 kcal/mol
4,GGTGGCACGTGTATGT,0.05 kcal/mol
5,GGGTGCACGTGGATTA,0.04 kcal/mol
6,TTTTACACGTGTTATT,0.08 kcal/mol
7,CGTGGCACGTGGTTAA,-0.24 kcal/mol
8,GAGTGCACGTGGGCGT,-0.14 kcal/mol
9,AGTGGCACGTGGTAAC,-0.11 kcal/mol
10,CGGGACACGTGGTGTC,-0.04 kcal/mol
11,CTTGGCACGTGGGATA,-0.32 kcal/mol
12,CATAGCACGTGTATGG,-0.01 kcal/mol
13,AATTGCACGTGAGTTA,0.18 kcal/mol
14,TATGGCACGTGGCTTC,0.04 kcal/mol
15,GAATACACGTGGCGTG,0.06 kcal/mol
16,CGGTCCACGTGGTTTT,0.09 kcal/mol
17,GGTCACACGTGCGGGA,0.22 kcal/mol
18,GGTCGCACGTGCGAGG,0.03 kcal/mol
19,GGGTGCACGTGTGTCG,0.01 kcal/mol
20,GTGTACACGTGTTACG,0.14 kcal/mol
21,ATTTACACGTGGGTTC,0.12 kcal/mol
22,GTGCACACGTGGTGGT,0.02 kcal/mol
